Data: PubChem BioAssay AID686978 (National Center for Advancing Translational Sciences (NCATS), 2013)
Among all 420,000 compounds or so, about 64,000 (15%) were called active. Inconclusive results, whose numbers are uncertain, are shown with a selection of clear calls. Calls follow the shape of the dose curve; as a rule, active = well fitted inhibition curve with a large enough effect; inconclusive = small, poorly fitted or top-dose-only effect; inactive = flat fitted curve, though single readings scatter. Potencies of inconclusive entries are left out as doubtful fits.

experiment: qHTS for Inhibitors of human tyrosyl-DNA phosphodiesterase 1 (TDP1): qHTS in cells in absence of CPT; details: DT40 Tdp1-/- hTDP1 cells, no CPT, ATP luminescence, 48 h; activity change, negative = growth inhibition: at 46.2 µM (top of the series); also: nearly all actives have a fitted effect of over 55% in size
Summary of the method: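 Growth of hTDP1-complemented DT40 Tdp1-knockout cells is measured by ATP luminescence after at least 48 hr compound exposure at 37 °C, with DMSO substituting for the 20 nM CPT used in the parallel screen.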
% is scaled to controls: 0 for no effect and ±100 for the full control effect; potency is read from the fitted curve at half-maximal effect; tags tell the direction and shape of the fitted curve.

With COC(=O)c1cn(NC(=O)/C=C/c2cc(OC)ccc2OC)c(=O)c2ccccc12 as the compound, how does the Potency read?
Its Potency is inconclusive [inhibitor, single point].

Which Potency does the source give for COc1ccc(CCN(C)C(=O)c2ccc(COc3ccccc3)o2)cc1OC here?
The Potency was inconclusive [inhibitor, single point].

Which Potency does the source give for C[C@H](CO)N1C[C@H](C)[C@H](CN(C)C(=O)NC2CCCCC2)Oc2ncc(Br)cc2C1=O here?
Its Potency is “inactive”.

Which Potency does the source give for Cc1cc(S(=O)(=O)N2CCN(CC(=O)NC(C)(C#N)C3CC3)CC2)ccc1Br (centres undefined) here?
Its Potency is inconclusive [inhibitor, single point].

Which Potency does the source give for Cc1ccc(C)c(C(=O)CCC(=O)Nc2ccc(F)cc2)c1 here?
The Potency was “inactive”.

With O=C(Cc1ccccc1)Nc1c(Cl)ccc2nsnc12 as the compound, how does the Potency read?
Its Potency is inconclusive [inhibitor, partial curve].

With O=C(CNc1cc(S(=O)(=O)N2CCCC2)ccc1OCC(F)(F)F)Nc1ccc(SC(F)F)cc1 as the compound, how does the Potency read?
The Potency was active: 3.66 µM.

For Cc1ccnc(NC(=O)CCN2C(=O)c3ccccc3S2(=O)=O)n1, which Potency is on record?
Its Potency is “inactive”.

Which Potency does the source give for Cc1cc(NC(=S)NC(=O)/C=C/c2ccc(S(=O)(=O)N3CCOCC3)cc2)ccc1Br here?
Its Potency is active: 14.6 µM.

For CCNC(=O)COc1cc(C)c(Br)c(C)c1, which Potency is on record?
Its Potency is “inactive”.

Which Potency does the source give for Cc1ccc(Nc2nc(=O)c3cccnc3s2)cc1 here?
The Potency was “inactive”.

Which Potency does the source give for COC(=O)c1c(C)oc2ccc(N(C(C)=O)S(=O)(=O)c3ccccc3)cc12 here?
The Potency was “inactive”.

With COc1cccc(N2CCN(c3ncnc4c3nc3n4CCCCC3)CC2)c1 as the compound, how does the Potency read?
The Potency was active: 10.3 µM.

With C=CCn1c(SCC(=O)NC(=O)NCCC)nnc1C1CCCCC1 as the compound, how does the Potency read?
Its Potency is “inactive”.

With Cc1c(O)ccc(/C(Cc2ccc3ccccc3n2)=N\N)c1O as the compound, how does the Potency read?
The Potency was active: 10.3 µM.

With Cc1cc(C(=O)N/N=C/c2c(C)n(C)c3ccccc23)n[nH]1 as the compound, how does the Potency read?
Its Potency is inconclusive [inhibitor, partial curve].

Which Potency does the source give for COc1ccc(S(=O)(=O)NCc2cccnc2)cc1C(=O)N1CCCCC1 here?
The Potency was “inactive”.

With CCS(=O)(=O)NC(C)C(c1cccs1)N1CCN(C)CC1 (centres undefined) as the compound, how does the Potency read?
The Potency was “inactive”.

Which Potency does the source give for COc1ccc(CC(=O)N/N=C(\C)c2cccs2)cc1 here?
The Potency was “inactive”.

For O=S(=O)(c1ccccc1)c1nnn2c1nc(NCc1ccc(F)cc1)c1sccc12, which Potency is on record?
The Potency was “inactive”.

Which Potency does the source give for Brc1ccc(-c2nc3ccccn3c2Nc2ccc3c(c2)OCCO3)o1 here?
Its Potency is inconclusive [inhibitor, single point].

For COc1cc(/C=N/Nc2nc(Nc3ccccc3)nc(-n3nc(C)cc3C)n2)cc(OC)c1OC, which Potency is on record?
Its Potency is active: 18.4 µM.

For O=[N+]([O-])c1ccc(-[n+]2nc(-c3ccccc3)nn2-c2ccccc2)cc1, which Potency is on record?
The Potency was “inactive”.

With O=C(Nc1ccc(F)cc1)Nc1nnc(-c2ccncc2)s1 as the compound, how does the Potency read?
The Potency was active: 20.6 µM.

For O=C(NCCN1CCC(Cc2ccccc2)CC1)C1CCN(S(=O)(=O)N2CCC3(CC2)OCCO3)CC1, which Potency is on record?
Its Potency is active: 18.4 µM.

Which Potency does the source give for COC(c1ccccc1)c1nnc(CCC(=O)NC2C3CC4CC(C3)CC2C4)o1 (centres undefined) here?
The Potency was inconclusive [inhibitor, single point].

For CCOC(=O)c1cnn2c(SC)ncnc12, which Potency is on record?
The Potency was inconclusive [inhibitor, partial curve].

For Cc1ccc(NC(=O)CCN2CC(C)OC(C)C2)cc1C (centres undefined), which Potency is on record?
Its Potency is “inactive”.

With Cc1nnsc1C(=O)N1CCCC(N2CCN(c3cccc(C(F)(F)F)c3)CC2)C1 (centres undefined) as the compound, how does the Potency read?
Its Potency is inconclusive [inhibitor, partial curve].

For CCOc1ccc2oc(C(=O)OCC(=O)NCC3CCCO3)c(C)c2c1 (centres undefined), which Potency is on record?
Its Potency is inconclusive [inhibitor, single point].

Which Potency does the source give for Cc1sc2ncnc(SCC(=O)c3cccs3)c2c1C here?
Its Potency is inconclusive [inhibitor, single point].

With Cc1cccc(N(C)C(=O)CCS(=O)(=O)c2ccc3c(c2)oc(=O)n3C)c1 as the compound, how does the Potency read?
Its Potency is inconclusive [inhibitor, single point].

With CCC(=O)NC(Nc1cc(C)ccn1)(C(F)(F)F)C(F)(F)F as the compound, how does the Potency read?
Its Potency is “inactive”.

With O=C(NCCCc1ccccc1)c1ccccc1O as the compound, how does the Potency read?
The Potency was inconclusive [inhibitor, single point].

For C=Cc1ccc(Cn2c(C(=O)O)c(CNC3CCCC3)c3ccc(C)cc32)cc1, which Potency is on record?
The Potency was inconclusive [inhibitor, single point].

With CN(C)S(=O)(=O)c1ccc2c(c1)N(CC(=O)Nc1ccc(OC(F)(F)F)cc1)C(=O)CS2 as the compound, how does the Potency read?
The Potency was inconclusive [inhibitor, single point].

For Cc1ccc(S(=O)(=O)N2CCOCC2)cc1NC(=O)c1cc2ccccc2oc1=O, which Potency is on record?
Its Potency is inconclusive [inhibitor, full curve, poor fit].

With Cc1ccc(NC(=O)C2(C)CCCN(C(C)C)C2)cc1C (centres undefined) as the compound, how does the Potency read?
Its Potency is inconclusive [inhibitor, single point].

With CC(C)(C)c1cc(C(=O)N/N=C/c2ccc(F)cc2)n(-c2ccccc2)n1 as the compound, how does the Potency read?
The Potency was active: 23.1 µM.

With Cc1cccc(NC(=O)c2cc(=O)c3ccccc3o2)c1 as the compound, how does the activity change, negative = growth inhibition read?
Its activity change, negative = growth inhibition is inconclusive: -32.1% [inhibitor].

For CCCCn1c(N)c(N(CC(C)C)C(=O)c2cccc(OCc3ccccc3)c2)c(=O)[nH]c1=O, which Potency is on record?
The Potency was inconclusive [inhibitor, single point].

Which Potency does the source give for N#CC1(Nc2ccc(-c3ccc(Cl)cc3)cc2)CCCC1 here?
Its Potency is “inactive”.

For COc1ccc(S(=O)(=O)n2ccc(-c3ccc4c(c3)CCC(C)(C)O4)n2)cc1, which Potency is on record?
Its Potency is inconclusive [inhibitor, single point].

For Cc1ccccc1Cn1c(=N)n(CC(O)c2ccco2)c2ccccc21 (centres undefined), which Potency is on record?
Its Potency is active: 14.6 µM.

With COc1ccc(-c2sc3ccc(OC)cc3c2-c2ccc(OC)c(F)c2)cc1 as the compound, how does the Potency read?
Its Potency is inconclusive [inhibitor, single point].

With CN1CCN(NC(=O)c2cccc(Br)c2)CC1 as the compound, how does the Potency read?
The Potency was “inactive”.

For CCCCn1c(SCC(=O)N2CCc3ccccc32)nnc1-c1ccncc1, which Potency is on record?
The Potency was inconclusive [inhibitor, single point].

Which Potency does the source give for O=C(NC(=S)Nc1ccc(Br)cn1)c1cncc(Br)c1 here?
Its Potency is inconclusive [inhibitor, single point].

For COc1ccc(C(=O)COC(=O)C(C(C)C)N2C(=O)C3C4C=CC(C4)C3C2=O)cc1 (centres undefined), which Potency is on record?
Its Potency is inconclusive [inhibitor, partial curve, poor fit].
